# From the supplement of paper PMC8728848
# Some of the results follow.
# B1: RS-IIL (Ralstonia solanacearum) (protein)
# chain: AQQGVFTLPANTSFGVTAFANAANTQTIQVLVDNVVKATFTGSGTSDKLLGSQVLNSGSGAIKIQVSVNGKPSDLVSNQTILANKLNFAMVGSEDGTDNDYNDGIAVLNWPLG
# Legend:
# Test in all cases: glycan array binding signal (z-score within array); higher = stronger binding
# Details in all cases: glycan notation: IUPAC condensed, linker removed
# [1] = target: Gal(b1-3)[Fuc(a1-4)]GlcNAc(b1-3)Gal(b1-4)[Fuc(a1-3)]GlcNAc
# In short: (§1)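 The binding signal is a Z-score computed within each array. Data were drawn from 3228 arrays in the Consortium for Functional Glycomics database, restricted to those with a known protein sequence. Scores were averaged over arrays of the same protein sequence at different concentrations or buffers, and over linkers, and negative values can be taken as non-binding.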
# [2] = target: Gal(b1-3)[GlcNAc(b1-6)]GalNAc
# In short: as §1
# [3] = target: Gal(b1-3)[Neu5Ac(a2-6)]GalNAc
# In short: as §1
# [4] = target: Gal(b1-3)[Neu5Ac(a2-6)]GlcNAc(b1-6)Gal(b1-4)Glc
# In short: as §1
# [5] = target: Gal(b1-3)[Neu5Ac(b2-6)]GalNAc
# In short: as §1
# [6] = target: Gal(b1-4)GalNAc(a1-3)[Fuc(a1-2)]Gal(b1-4)GlcNAc
# In short: as §1
# [7] = target: Gal(b1-4)GalNAc(b1-3)[Fuc(a1-2)]Gal(b1-4)GlcNAc
# In short: as §1
# [8] = target: Gal(b1-4)Glc
# In short: as §1
# [9] = target: Gal(b1-4)Glc6S
# In short: as §1
# [10] = target: Gal(b1-4)GlcNAc
# In short: as §1
# [11] = target: Gal(b1-4)GlcNAc(b1-2)Man(a1-3)[Gal(b1-4)GlcNAc(b1-2)Man(a1-6)]Man(b1-4)GlcNAc(b1-4)GlcNAc
# In short: as §1
# [12] = target: Gal(b1-4)GlcNAc(b1-3)Gal(b1-4)Glc
# In short: as §1
# [13] = target: Gal(b1-4)GlcNAc(b1-3)Gal(b1-4)GlcNAc
# In short: as §1
# [14] = target: Gal(b1-4)GlcNAc(b1-3)Gal(b1-4)GlcNAc(b1-3)Gal(b1-4)GlcNAc
# In short: as §1
# [15] = target: Gal(b1-4)GlcNAc(b1-3)Gal(b1-4)[Fuc(a1-3)]GlcNAc(b1-3)Gal(b1-4)[Fuc(a1-3)]GlcNAc
# In short: as §1
# [16] = target: Gal(b1-4)GlcNAc(b1-3)GalNAc
# In short: as §1
# [17] = target: Gal(b1-4)GlcNAc(b1-3)[Gal(b1-4)GlcNAc(b1-6)]GalNAc
# In short: as §1
# [18] = target: Gal(b1-4)GlcNAc(b1-6)Gal(b1-4)GlcNAc(b1-6)GalNAc
# In short: as §1
# [19] = target: Gal(b1-4)GlcNAc(b1-6)GalNAc
# In short: as §1
# [20] = target: Gal(b1-4)GlcNAc(b1-6)[Gal(b1-3)]GalNAc
# In short: as §1
# [21] = target: Gal3S(b1-3)GalNAc
# In short: as §1
# [22] = target: Gal3S(b1-3)GlcNAc
# In short: as §1
# [23] = target: Gal3S(b1-3)[Fuc(a1-4)]GlcNAc
# In short: as §1
# [24] = target: Gal3S(b1-4)Glc
# In short: as §1
# [25] = target: Gal3S(b1-4)Glc6S
# In short: as §1
# [26] = target: Gal3S(b1-4)GlcNAc
# In short: as §1
# [27] = target: Gal3S(b1-4)GlcNAc6S
# In short: as §1
# [28] = target: Gal3S6S(b1-4)GlcNAc
# In short: as §1
# [29] = target: Gal3S6S(b1-4)GlcNAc6S
# In short: as §1
# [30] = target: Gal4S(b1-4)GlcNAc
# In short: as §1
# [31] = target: Gal4S6S(b1-4)GlcNAc
# In short: as §1
# [32] = target: Gal6S(b1-4)Glc
# In short: as §1
# [33] = target: Gal6S(b1-4)Glc6S
# In short: as §1
# [34] = target: Gal6S(b1-4)GlcNAc
# In short: as §1
# [35] = target: GalNAc(a1-3)Gal
# In short: as §1
# [36] = target: GalNAc(a1-3)GalNAc
# In short: as §1
# [37] = target: GalNAc(b1-3)Gal(a1-4)Gal(b1-4)GlcNAc
# In short: as §1
# [38] = target: GalNAc(b1-3)GalNAc
# In short: as §1
# [39] = target: GalNAc(b1-4)GlcNAc
# In short: as §1
# [40] = target: Glc(a1-4)Glc
# In short: as §1
# [41] = target: Glc(a1-6)Glc(a1-6)Glc
# In short: as §1
# [42] = target: Glc(b1-4)Glc
# In short: as §1
# [43] = target: Glc(b1-6)Glc
# In short: as §1
# [44] = target: GlcA(b1-3)Gal
# In short: as §1
# [45] = target: GlcA(b1-6)Gal
# In short: as §1
# [46] = target: GlcNAc(a1-3)Gal(b1-4)GlcNAc
# In short: as §1
# [47] = target: GlcNAc(a1-6)Gal(b1-4)GlcNAc
# In short: as §1
# [48] = target: GlcNAc(b1-2)Gal(b1-3)GalNAc
# In short: as §1
# [49] = target: GlcNAc(b1-2)Man(a1-3)[GlcNAc(b1-2)Man(a1-6)]Man(b1-4)GlcNAc(b1-4)GlcNAc
# In short: as §1
# [50] = target: GlcNAc(b1-3)Gal
# In short: as §1
# [51] = target: GlcNAc(b1-3)Gal(b1-3)GalNAc
# In short: as §1
# [52] = target: GlcNAc(b1-3)Gal(b1-4)Glc
# In short: as §1
# [53] = target: GlcNAc(b1-3)Gal(b1-4)GlcNAc
# In short: as §1
# [54] = target: GlcNAc(b1-3)Gal(b1-4)GlcNAc(b1-3)Gal(b1-4)GlcNAc
# In short: as §1
# [55] = target: GlcNAc(b1-3)GalNAc
# In short: as §1
# [56] = target: GlcNAc(b1-3)[GlcNAc(b1-6)]Gal(b1-4)GlcNAc
# In short: as §1
# [57] = target: GlcNAc(b1-3)[GlcNAc(b1-6)]GalNAc
# In short: as §1
# [58] = target: GlcNAc(b1-3)[GlcNAc(b1-6)]GlcNAc(b1-4)GlcNAc
# In short: as §1
# [59] = target: GlcNAc(b1-4)Gal(b1-4)GlcNAc
# In short: as §1
# [60] = target: GlcNAc(b1-4)GlcNAc(b1-4)GlcNAc
# In short: as §1
binder,measurement,setting,value
B1,glycan array binding signal (z-score),[1],0.765
same,glycan array binding signal (z-score),[2],-0.389
same,glycan array binding signal (z-score),[3],-0.381
same,glycan array binding signal (z-score),[4],-0.384
same,glycan array binding signal (z-score),[5],-0.388
same,glycan array binding signal (z-score),[6],-0.358
same,glycan array binding signal (z-score),[7],-0.378
same,glycan array binding signal (z-score),[8],-0.387
same,glycan array binding signal (z-score),[9],-0.387
same,glycan array binding signal (z-score),[10],-0.386
same,glycan array binding signal (z-score),[11],-0.277
same,glycan array binding signal (z-score),[12],-0.377
same,glycan array binding signal (z-score),[13],-0.388
same,glycan array binding signal (z-score),[14],-0.387
same,glycan array binding signal (z-score),[15],-0.014
same,glycan array binding signal (z-score),[16],-0.389
same,glycan array binding signal (z-score),[17],-0.389
same,glycan array binding signal (z-score),[18],-0.388
same,glycan array binding signal (z-score),[19],-0.389
same,glycan array binding signal (z-score),[20],-0.388
same,glycan array binding signal (z-score),[21],-0.384
same,glycan array binding signal (z-score),[22],-0.382
same,glycan array binding signal (z-score),[23],0.761
same,glycan array binding signal (z-score),[24],-0.382
same,glycan array binding signal (z-score),[25],-0.384
same,glycan array binding signal (z-score),[26],-0.385
same,glycan array binding signal (z-score),[27],-0.38
same,glycan array binding signal (z-score),[28],-0.388
same,glycan array binding signal (z-score),[29],-0.385
same,glycan array binding signal (z-score),[30],-0.384
same,glycan array binding signal (z-score),[31],-0.386
same,glycan array binding signal (z-score),[32],-0.378
same,glycan array binding signal (z-score),[33],-0.386
same,glycan array binding signal (z-score),[34],-0.388
same,glycan array binding signal (z-score),[35],-0.387
same,glycan array binding signal (z-score),[36],-0.381
same,glycan array binding signal (z-score),[37],-0.381
same,glycan array binding signal (z-score),[38],-0.382
same,glycan array binding signal (z-score),[39],-0.386
same,glycan array binding signal (z-score),[40],-0.266
same,glycan array binding signal (z-score),[41],-0.304
same,glycan array binding signal (z-score),[42],-0.276
same,glycan array binding signal (z-score),[43],-0.383
same,glycan array binding signal (z-score),[44],-0.387
same,glycan array binding signal (z-score),[45],-0.274
same,glycan array binding signal (z-score),[46],-0.388
same,glycan array binding signal (z-score),[47],-0.356
same,glycan array binding signal (z-score),[48],-0.385
same,glycan array binding signal (z-score),[49],-0.255
same,glycan array binding signal (z-score),[50],-0.388
same,glycan array binding signal (z-score),[51],-0.388
same,glycan array binding signal (z-score),[52],-0.383
same,glycan array binding signal (z-score),[53],-0.387
same,glycan array binding signal (z-score),[54],-0.389
same,glycan array binding signal (z-score),[55],-0.389
same,glycan array binding signal (z-score),[56],-0.382
same,glycan array binding signal (z-score),[57],-0.382
same,glycan array binding signal (z-score),[58],-0.389
same,glycan array binding signal (z-score),[59],-0.389
same,glycan array binding signal (z-score),[60],-0.388
